Source: patent US20130189747A1, “Compositions Comprising A Polypeptide Having Cellulolytic Enhancing Activity And A Sulfur-Containing Compound And Uses Thereof” (priority 2010, published 2013)

B1: T. reesei GH61B polypeptide: GH61B polypeptide having cellulolytic enhancing activity (SEQ ID NO: 16), recombinantly prepared in Aspergillus oryzae JaL250 (protein, listed as Trichoderma reesei)
chain: MKSCAILAALGCLAGSVLGHGQVQNFTINGQYNQGFILDYYYQKQNTGHFPNVAGWYAEDLDLGFISPDQYTTPDIVCHKNAAPGAISATAAAGSNIVFQWGPGVWPHPYGPIVTYVVECSGSCTTVNKNNLRWVKIQEAGINYNTQVWAQQDLINQGNKWTVKIPSSLRPGNYVFRHELLAAHGASSANGMQNYPQCVNIAVTGSGTKALPAGTPATQLYKPTDPGILFNPYTTITSYTIPGPALWQG

How the values were obtained:
[1] = tested on: Trichoderma reesei cellulase composition; assay: Hydrolysis of AVICEL® (microcrystalline cellulose) by the Trichoderma reesei cellulase composition with/without GH61 polypeptide and sulfur-containing compound; type: biochemical
Experimental: (§1) The effect of various sulfur-containing compounds on the cellulolytic enhancing activity of GH61 polypeptides was evaluated according to the procedures described below.

[2] = tested on: Trichoderma reesei cellulase composition; assay: Hydrolysis of milled washed pretreated corn stover (PCS) by the Trichoderma reesei cellulase composition with/without GH61 polypeptide and sulfur-containing compound; type: biochemical; conditions: milled washed PCS, T. aurantiacus GH61A polypeptide, L-cysteine 5 mM present
Experimental: as §1

Molecule	sulfur-containing compound effect(+GH61) ([1]; AVICEL®, L-cysteine 10 mM, T. aurantiacus GH61A polypeptide 14 mg per liter (25% w/w of cellulase), 1 and 3 days, FIG. 3A)	sulfur-containing compound effect(no GH61) ([1]; AVICEL®, L-cysteine 10 mM, no GH61 polypeptide, 1 and 3 days, FIG. 3A)	GH61 effect (ratio of percent conversion with/without GH61 polypeptide, Equation 4) ([1]; AVICEL®, T. aurantiacus GH61A polypeptide, sulfur-containing compound present (L-cysteine or glutathione 5 mM), 1, 3 and 7 days, FIG. 1)	Cellulolytic enhancing activity of the GH61 polypeptide in the presence of the compound ([1]; hydrolysis of AVICEL®, T. aurantiacus GH61A polypeptide)	GH61 effect (Equation 4) ([2]; 7 days)	GH61 effect (Equation 4) ([2]; FIG. 2)	Effect of the GH61 polypeptide on hydrolysis of AVICEL® (microcrystalline cellulose) by the T. reesei cellulase composition ([1]; in the absence of a sulfur-containing compound, listed as Trichoderma reesei GH61B polypeptide)
N[C@@H](CS)C(=O)O [L-cysteine]	> 1	> 1	greater than 1	apparent	approximately 1.35±0.01	greater than 1	
B1							did not significantly enhance
